Test results reported in PubChem BioAssay AID720709 (National Center for Advancing Translational Sciences (NCATS), 2013).
The whole screen tested about 360,000 compounds, of which about 520 (0.14%) were called active. The shares of active, inactive and inconclusive entries below differ from those in the screen. Calls follow the shape of the dose curve; as a rule, active = well fitted inhibition curve with a large enough effect; inconclusive = small, poorly fitted or top-dose-only effect; inactive = no such curve, though single readings can be large or run the other way. Potencies of inconclusive entries are left out as doubtful fits.
Also: nearly all actives have a fitted effect of over 50% in size.
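For activity change, negative = inhibition in this document: plate controls were vehicle for no effect and positive control for full effect.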
Potency is read from the fitted curve at half-maximal effect; tags tell the direction and shape of the fitted curve.

The compounds below were run against Rap guanine nucleotide exchange factor 3 (Homo sapiens) (UniProt O95398) (assay: qHTS for Antagonist of cAMP-regulated guanine nucleotide exchange factor 3 (EPAC1): primary screen). Conditions: EPAC1 GEF assay, Rap1b-BODIPY-GDP exchange fluorescence; activity change, negative = inhibition: at 115 µM (top of the series).
UniProt O95398, sequence (O95398 whole entry, looked up): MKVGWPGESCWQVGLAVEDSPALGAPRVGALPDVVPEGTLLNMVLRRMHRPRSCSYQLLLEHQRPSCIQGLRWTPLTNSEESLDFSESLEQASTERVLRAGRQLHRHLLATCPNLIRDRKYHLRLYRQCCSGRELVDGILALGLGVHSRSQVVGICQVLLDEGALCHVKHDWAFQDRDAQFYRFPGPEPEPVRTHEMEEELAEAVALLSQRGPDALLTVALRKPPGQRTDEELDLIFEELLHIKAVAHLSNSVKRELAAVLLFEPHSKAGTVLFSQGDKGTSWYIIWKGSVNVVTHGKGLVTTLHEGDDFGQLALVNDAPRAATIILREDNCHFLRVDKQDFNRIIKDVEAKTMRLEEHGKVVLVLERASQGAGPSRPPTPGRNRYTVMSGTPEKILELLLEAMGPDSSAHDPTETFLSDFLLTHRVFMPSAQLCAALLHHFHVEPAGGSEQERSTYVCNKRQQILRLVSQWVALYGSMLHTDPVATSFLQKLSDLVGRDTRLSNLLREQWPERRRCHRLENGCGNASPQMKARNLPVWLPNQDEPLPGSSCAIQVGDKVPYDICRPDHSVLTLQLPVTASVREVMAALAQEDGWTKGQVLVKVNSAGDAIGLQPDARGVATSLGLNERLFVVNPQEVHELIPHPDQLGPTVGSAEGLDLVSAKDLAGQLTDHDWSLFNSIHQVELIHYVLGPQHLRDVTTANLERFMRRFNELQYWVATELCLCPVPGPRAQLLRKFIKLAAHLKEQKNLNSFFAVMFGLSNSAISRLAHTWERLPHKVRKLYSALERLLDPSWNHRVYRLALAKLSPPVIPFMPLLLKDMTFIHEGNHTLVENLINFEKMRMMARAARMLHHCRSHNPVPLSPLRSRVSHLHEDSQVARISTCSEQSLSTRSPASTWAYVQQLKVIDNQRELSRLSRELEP
In the case of Cc1cc(F)c(F)c(C(=O)N2CCC(C)CC2)c1Cl, the Potency was “inactive”.
For OC1CCN(c2c3c(nc4cc(-c5cccc(F)c5)nn24)CCCC3)CC1, the Potency was inconclusive [inhibitor, partial curve].
For O=C(c1ccccc1OCc1ccc(Cl)cc1)N1CCN(c2ccccn2)CC1, the Potency was inconclusive [inhibitor, full curve].
O=C(c1ccc(Oc2ccc(C(F)(F)F)cn2)cc1)N1CCN(c2ccccc2)CC1 was tested, and the Potency was inconclusive [inhibitor, single point].
For CCc1n[nH]c(=S)n1/N=C/c1c[nH]c2ccc(Br)cc12, the Potency was inconclusive [inhibitor, full curve, poor fit].
CC(=O)NC(C)(c1ccccc1)c1nc(-c2ccc(F)c(Cl)c2)cs1 (stereo not given) was tested, and the Potency was inconclusive [inhibitor, partial curve, poor fit].
With COc1ccccc1C(=O)NCCC(=O)NC1CCCCCC1 the Potency was inconclusive [inhibitor, single point].
In the case of COc1ccccc1Cc1c(-c2ccco2)nc2ccc(Cl)cn12, the Potency was “inactive”.
For O=C1C(Cc2ccccc2)SC(=Nc2ccccc2)N1c1ccccc1 (stereo not given), the Potency was inconclusive [inhibitor, partial curve].
For C/C(=N\NC(=O)c1cccs1)C(C)(C)C, the Potency was “inactive”.
With Oc1oc(-c2ccccc2)nc1C=Nc1ccccc1 the Potency was “inactive”.
In the case of Cc1ccc([C@H]2C[C@H](n3cc(C4CC4)nn3)[C@@H](O)CN2Cc2cccs2)cc1, the Potency was “inactive”.
COc1cc(C(=O)Nc2cccc(-c3cn4cccnc4n3)c2)cc(OC)c1OC was tested, and the Potency was inconclusive [inhibitor, partial curve].
COc1ccc(N2Cc3ccccc3/C2=N\C(=O)Nc2ccccc2)cc1 was tested, and the Potency was inconclusive [inhibitor, single point].
In the case of O=C(CCC(=O)N1CCN(c2ccc(C(F)(F)F)cn2)CC1)c1cccs1, the Potency was inconclusive [inhibitor, single point].
For COc1cccc(/C=N/NC(=O)CCc2n[nH]c(=O)[nH]c2=O)c1O, the Potency was “inactive”.
For O=C(c1[nH]c(C(F)(F)F)nc1-c1ccccc1)N1CCC(Cc2ccccc2)CC1, the Potency was inconclusive [inhibitor, single point].
COCCNC(=S)N1CCc2cc(OC)c(OC)cc2C1COc1ccc(C(C)C)cc1 (stereo not given) was tested, and the Potency was inconclusive [inhibitor, full curve].
For O=C(Nc1cccc(-c2nc3ccccc3[nH]2)c1)c1ccc(C(=O)Nc2cccc(-c3nc4ccccc4[nH]3)c2)cc1, the Potency was inconclusive [inhibitor, full curve].
For CC(C)(C)Nc1ncnc2sc(-c3ccccc3)cc12, the Potency was inconclusive [inhibitor, partial curve].
For CCc1ccc(-n2nc3cc(C)c(N)cc3n2)cc1, the Potency was inconclusive [inhibitor, partial curve].
In the case of O=C(CNCCC1=CCCCC1)Nc1ccc(N2CCCCCC2)cc1, the activity change, negative = inhibition was inconclusive: -31.2% [inhibitor].
In the case of Cn1cccc1/C=C1/SC(=S)N(CC(=O)O)C1=O, the Potency was inconclusive [inhibitor, single point].
With COC(=O)c1cccc(-c2ccc(C(c3c(C)[nH][nH]c3=O)c3c(C)[nH][nH]c3=O)o2)c1 the Potency was inconclusive [inhibitor, full curve, poor fit].
COc1ccc(CCNCC(=O)Nc2ccccc2C(F)(F)F)cc1 was tested, and the Potency was inconclusive [inhibitor, single point].
For O=C(NCCc1ccccc1)C(c1cccs1)N(C(=O)CCl)c1ccc(Cl)cc1 (stereo not given), the Potency was inconclusive [inhibitor, partial curve].
For CCC(=O)Nc1c(S(=O)(=O)c2ccccc2)c2nc3ccccc3nc2n1C(C)c1ccccc1 (stereo not given), the Potency was inconclusive [inhibitor, full curve].
With O=C(O)c1cccc(NS(=O)(=O)c2ccc3c4c(cccc24)C(=O)N3)c1 the Potency was inconclusive [inhibitor, single point].
With O=C1NCCCC1C(=O)N/N=C/c1cccc([N+](=O)[O-])c1 (stereo not given) the Potency was inconclusive [inhibitor, single point].
COc1ccc(CCN2C(=O)C(O)=C(C(=O)c3ccco3)C2c2cccs2)cc1OC (stereo not given) was tested, and the Potency was inconclusive [inhibitor, full curve, poor fit].
In the case of N=C1SC(c2ccccc2)C(=O)N1c1ncc(Cc2ccccc2Cl)s1 (stereo not given), the Potency was active: 70.8 µM.
In the case of Cc1ncc([N+](=O)[O-])n1S(=O)(=O)c1ccc2c(c1)OCCO2, the Potency was inconclusive [inhibitor, partial curve].
In the case of CCOC(=O)c1c(C)[nH]c(C)c1C(=O)COC(=O)/C=C/c1ccc(OC(F)F)cc1, the Potency was inconclusive [inhibitor, full curve].
In the case of CC(Oc1ccc2ccc(=O)oc2c1)C(=O)NCCCn1ccnc1 (stereo not given), the Potency was inconclusive [inhibitor, partial curve].
For CNc1ccc(Br)cc(C(=O)/C=C/c2cccc(OC)c2)c1=O, the Potency was inconclusive [inhibitor, partial curve].
In the case of CC(C)C[C@H](NC(=O)c1[nH]cnc1C(=O)Nc1ccc(Cl)cc1)C(=O)OC(C)(C)C, the Potency was inconclusive [inhibitor, full curve, poor fit].
In the case of O=C(CN1CCc2cc3c(cc2C1)OCCCO3)Nc1ccc(S(=O)(=O)N2CCCC2)cc1, the Potency was inconclusive [inhibitor, full curve, poor fit].
In the case of COCCNC(=O)C(c1ccc(F)cc1)N(C(=O)CCC(=O)Nc1ccccn1)c1cccc(C)c1 (stereo not given), the Potency was inconclusive [inhibitor, single point].
For Cc1ccccc1OCCC(=O)N1CCN(S(=O)(=O)c2ccc(F)cc2)CC1, the Potency was inconclusive [inhibitor, single point].
For CCOC(=O)N1CCN(c2ccc(S(=O)(=O)N3CCC(C)CC3)cc2[N+](=O)[O-])CC1, the Potency was inconclusive [inhibitor, partial curve, poor fit].
OC(c1ccccc1)(c1nc(/C=C/c2ccc(C(F)(F)F)cc2)cs1)C(F)(F)F (stereo not given) was tested, and the Potency was inconclusive [inhibitor, partial curve].
For CCCCCCC(=O)NNC(=O)CC(=O)Nc1ccccc1C(=O)O, the Potency was inconclusive [inhibitor, single point].
In the case of O=C(CN1CCN(S(=O)(=O)/C=C/c2ccccc2)CC1)Nc1ccccc1N1CCOCC1, the Potency was “inactive”.
For CCC(C(=O)N1CCC(N2CCCCC2)CC1)n1nc(C)c2sc3ccccc3c2c1=O (stereo not given), the Potency was inconclusive [inhibitor, partial curve].
O=C(Nc1cccc(NC(=O)c2cccs2)c1)c1ccc(Br)o1 was tested, and the Potency was inconclusive [inhibitor, single point].
With O=C(C=C1SCCS1)/C=C/c1ccco1 the Potency was inconclusive [inhibitor, partial curve].
With CCCCCCCCN1C(=O)[C@H](CC(=O)NCc2cccs2)C[C@@]2(C(=O)OCC)CCCC=C12 the Potency was inconclusive [inhibitor, single point].
For CCOc1ccc(NS(=O)(=O)c2ccc(C(=O)NCC(c3ccco3)N3CCCCC3)cc2)cc1 (stereo not given), the Potency was “inactive”.
In the case of Cc1ccc(C(=O)N/C(=C\c2ccc(F)cc2)C(=O)NCc2ccncc2)cc1, the Potency was inconclusive [inhibitor, single point].
In the case of CCCC1OC(c2ccco2)OCC1CC (stereo not given), the Potency was inconclusive [inhibitor, single point].
CSc1ccc(CN(C)C(=O)c2cc(Cl)c3c(c2)OCCO3)cc1 was tested, and the Potency was “inactive”.
In the case of CCOP(=O)(c1ccc(N(C)C)cc1)C(O)c1ccc(C)cc1 (stereo not given), the Potency was inconclusive [inhibitor, partial curve].
For CCOC(=O)CSc1nc(C)c2cc(C)c(C)cc2n1, the Potency was inconclusive [inhibitor, partial curve].
In the case of O=C(c1ccc(Cl)cc1)N1CCOc2ccccc21, the activity change, negative = inhibition was inconclusive: -9.52% [inhibitor].
For Cc1ccc2[nH]c(C)c(/C=N/Nc3nc4ccccc4s3)c2c1, the Potency was inconclusive [inhibitor, partial curve].
OC[C@@H]1CN(Cc2cccnc2)C[C@H](n2cnc3c(N4CCN(c5ccccc5)CC4)ncnc32)O1 was tested, and the Potency was “inactive”.
For COc1ccc2[nH]c3c(NCCC4=CCCCC4)ncnc3c2c1, the Potency was “inactive”.
For CC(C)Nc1nc(NC(C)C)nc(OCCOC(=O)c2ccccc2)n1, the Potency was inconclusive [inhibitor, single point].
For O=C(Nc1ccc2oc(-c3ccncc3)nc2c1)c1ccc2c(c1)OCCO2, the Potency was inconclusive [inhibitor, partial curve, poor fit].
For C/C(=N\Nc1nc2ccccc2[nH]1)c1cc2ccccc2o1, the Potency was inconclusive [inhibitor, single point].
With CCc1nn(CC(=O)N2CCN(C)CC2)c(=O)c2cccn12 the Potency was “inactive”.
With CCN(CC(=O)Nc1ccc(NC(C)=O)cc1)C(=O)COc1ccccc1Cc1ccccc1 the Potency was inconclusive [inhibitor, single point].
With CCOC(=O)CNCCC(=O)c1ccc(Br)cc1 the Potency was inconclusive [inhibitor, single point].
With O=C1Cc2ccccc2Sc2ccc(O)cc21 the Potency was inconclusive [inhibitor, partial curve].
For Cc1ccc(S(=O)(=O)NN(Cc2ccccc2)Cc2ccccc2)cc1, the Potency was “inactive”.
